Measured values as given in the supplement of paper PMC7826260.
Some of the results follow. The data describe in vitro nicking of single-stranded DNA by Rep domains (3 µM enzyme, 1 h, 37 °C); shown is the middle of each 90-letter strand. Numbers give uncut DNA relative to the enzyme-free pool, as log2; more negative means more cut, near 0 not cut, and no call is made. Counts are relative to all reads; uncut strands gain when others are lost, and binding without cutting may add a little.

Columns and labels:
Assay in all cases: uncleaved DNA left, log2 of reads against the no-enzyme library (log2 ratio); higher = less cleavage (more negative = more Rep cleavage of the k-mer); sequences stand for … in CTCGTCCG…ACCGGAGA
[1] = system: T1, Rep nickase domain of Muscovy duck circovirus
T1 sequence (residues 1-111 of Rep, tag left off): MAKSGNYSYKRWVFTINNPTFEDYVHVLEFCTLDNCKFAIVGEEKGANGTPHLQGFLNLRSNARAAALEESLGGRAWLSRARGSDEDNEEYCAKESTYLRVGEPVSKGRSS
Protocol: (§1)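 A pool of 90-nt single-stranded DNAs with seven random bases just before the constant AC of the nick site (name = the seven bases) was cut by 3 µM recombinant His6-SUMO-tagged Rep nickase domain (300 nM DNA, 50 mM HEPES pH 8.0, 50 mM NaCl, 1 mM MnCl2, 1 h, 37 °C, three replicates). Uncut DNA was amplified and sequenced.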

[2] = system: T2, Rep nickase domain of banana bunchy top virus
T2 sequence (residues 1-94 of Rep, tag left off): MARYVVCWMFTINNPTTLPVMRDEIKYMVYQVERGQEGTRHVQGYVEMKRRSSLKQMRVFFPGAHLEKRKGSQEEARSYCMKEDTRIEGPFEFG
Protocol: as §1

[3] = system: T3, Rep nickase domain of cabbage leaf curl virus
T3 sequence (residues 1-116 of Rep, tag left off): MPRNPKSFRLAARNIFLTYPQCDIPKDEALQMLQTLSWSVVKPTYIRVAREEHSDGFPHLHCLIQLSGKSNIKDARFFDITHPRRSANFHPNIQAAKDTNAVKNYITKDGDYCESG
Protocol: as §1

[4] = system: T4, Rep nickase domain of chickpea chlorotic dwarf virus
T4 sequence (residues 1-124 of Rep, tag left off): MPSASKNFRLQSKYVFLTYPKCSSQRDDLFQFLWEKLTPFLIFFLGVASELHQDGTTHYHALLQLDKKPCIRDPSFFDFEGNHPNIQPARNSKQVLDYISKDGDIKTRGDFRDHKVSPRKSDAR
Protocol: as §1

[5] = system: T5, Rep nickase domain of faba bean necrotic yellows virus
T5 sequence (residues 1-98 of Rep, tag left off): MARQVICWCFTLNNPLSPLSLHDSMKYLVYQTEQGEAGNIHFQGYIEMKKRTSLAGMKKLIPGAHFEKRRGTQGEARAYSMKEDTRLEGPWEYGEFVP
Protocol: as §1

[6] = system: T6, Rep nickase domain of maize striate mosaic virus
T6 sequence (residues 1-117 of Rep, tag left off): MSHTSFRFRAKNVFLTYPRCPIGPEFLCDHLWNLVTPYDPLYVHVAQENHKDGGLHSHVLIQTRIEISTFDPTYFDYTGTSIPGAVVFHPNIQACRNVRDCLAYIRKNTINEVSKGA
Protocol: as §1

[7] = system: T7, Rep nickase domain of porcine circovirus 2
T7 sequence (residues 2-116 of Rep, tag left off): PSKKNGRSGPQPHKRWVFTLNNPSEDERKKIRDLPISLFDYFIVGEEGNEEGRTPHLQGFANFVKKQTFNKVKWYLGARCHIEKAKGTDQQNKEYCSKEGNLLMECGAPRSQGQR
Protocol: as §1

[8] = system: T8, Rep nickase domain of tomato golden mosaic virus
T8 sequence (residues 1-124 of Rep, tag left off): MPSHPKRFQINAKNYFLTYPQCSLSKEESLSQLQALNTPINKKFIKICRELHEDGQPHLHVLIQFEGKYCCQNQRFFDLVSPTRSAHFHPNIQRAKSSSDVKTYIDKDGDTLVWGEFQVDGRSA
Protocol: as §1

[9] = system: T9, Rep nickase domain of tomato yellow leaf curl virus
T9 sequence (residues 1-136 of Rep, tag left off): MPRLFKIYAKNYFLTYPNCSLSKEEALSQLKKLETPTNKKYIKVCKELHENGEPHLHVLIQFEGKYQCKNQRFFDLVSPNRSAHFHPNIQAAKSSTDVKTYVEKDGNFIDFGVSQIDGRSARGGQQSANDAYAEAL
Protocol: as §1

[10] = system: T10, Rep nickase domain of wheat dwarf virus
T10 sequence (residues 1-137 of Rep, tag left off): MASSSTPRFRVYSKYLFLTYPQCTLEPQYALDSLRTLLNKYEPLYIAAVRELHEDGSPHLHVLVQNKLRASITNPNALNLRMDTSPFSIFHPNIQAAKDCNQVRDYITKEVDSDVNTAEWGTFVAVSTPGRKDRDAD
Protocol: as §1

Row | Sequence | uncleaved DNA left (log2) [1] | uncleaved DNA left (log2) [2] | uncleaved DNA left (log2) [3] | uncleaved DNA left (log2) [4] | uncleaved DNA left (log2) [5] | uncleaved DNA left (log2) [6] | uncleaved DNA left (log2) [7] | uncleaved DNA left (log2) [8] | uncleaved DNA left (log2) [9] | uncleaved DNA left (log2) [10]
1 | AATTGGG | 0.0497 | -0.0556 | -0.732 | -0.297 | 0.0471 | -0.824 | 0.0576 | 0.0446 | 0.0712 | 0.00427
2 | GGCTGCA | 0.0784 | -0.175 | 0.07 | 0.682 | -0.129 | 0.72 | -0.0417 | -0.00546 | -0.0999 | -0.148
3 | GAGGTCA | 0.00568 | 0.154 | 0.764 | 1.85 | 0.059 | 1.98 | 0.0404 | 0.0821 | 0.0632 | 0.151
4 | CGTCCCG | -0.116 | 0.007 | -0.695 | -0.186 | -0.0466 | -0.747 | 0.0374 | -0.0281 | -0.0375 | -0.136
5 | TTCAATA | -0.0513 | 0.0628 | 0.0819 | -0.827 | -0.0986 | 0.188 | -0.112 | -0.0462 | 0.089 | 0.0442
6 | GGGTATT | -0.105 | 0.0782 | 0.765 | 1.94 | -0.158 | 2.24 | -2.39 | -0.107 | 0.0748 | 0.0624
7 | AGTATGG | 0.103 | 0.0504 | 0.0669 | 0.336 | 0.0577 | -0.33 | 0.243 | 0.121 | 0.121 | 0.088
8 | GCTTGCG | -0.00246 | -0.0404 | 0.284 | 1.41 | 0.0693 | 1.51 | 0.177 | 0.0224 | -0.095 | -0.0598
9 | TTCTTGG | 0.0245 | -0.0207 | 0.0741 | 0.22 | -0.00943 | -0.101 | 0.0116 | -0.0222 | -0.0616 | -0.0322
10 | CTACCCA | -0.283 | -0.0524 | -0.261 | -2.19 | -0.133 | -0.675 | -1.42 | -0.0633 | -0.0549 | -0.0712
11 | CCCCCTC | -0.0898 | -0.0809 | -0.0792 | -0.223 | 0.0428 | -0.34 | -0.245 | -0.169 | -0.264 | -0.158
12 | CGAACAG | 0.0107 | 0.00526 | -0.216 | -0.121 | 0.0211 | -0.278 | 0.102 | -0.093 | -0.0597 | -0.00548
13 | ACCGCCT | 0.0417 | -0.116 | -0.439 | -1.72 | -0.00736 | -0.577 | -0.0807 | 0.0208 | -0.117 | -0.257
14 | ATCTTTA | -0.137 | 0.0101 | -0.172 | -1.64 | 0.121 | -0.733 | -0.337 | 0.00141 | -0.0573 | 0.0356
15 | AGGTCGA | 0.00101 | 0.0449 | -0.266 | -0.456 | 0.0757 | -0.624 | 0.000673 | 0.0431 | 0.0411 | 0.0326
16 | AATGCGA | 0.0603 | 0.0399 | -0.62 | 0.71 | -0.0144 | -0.354 | 0.12 | -0.159 | -0.031 | -0.128
17 | TGGAATC | -0.0473 | 0.0568 | 0.364 | 1.09 | -0.14 | 1.43 | 0.121 | -0.0426 | 0.0528 | 0.0191
18 | ATGTCCA | -0.0552 | 0.0236 | -0.022 | -1.02 | -0.126 | -0.375 | -0.5 | -0.00167 | 0.0622 | 0.0688
19 | ATCTCAA | -0.0463 | -0.0226 | -0.116 | -0.233 | -0.0931 | -0.465 | -0.0396 | -0.0874 | -0.0144 | 0.0476
20 | AATCGCG | -0.012 | -0.0076 | -0.556 | 0.981 | -0.0567 | -0.00817 | 0.0309 | -0.0658 | -0.0323 | -0.0617
21 | TGAGGTC | -0.0115 | -0.0282 | 0.432 | 1.95 | 0.0514 | 1.36 | -0.0849 | 0.079 | -0.0198 | -0.00986
22 | CTCCGCC | -0.0274 | 0.0878 | 0.0532 | 0.119 | 0.141 | -0.194 | -0.000109 | 0.0306 | 0.0041 | -0.0143
23 | GTCCTCT | 0.0773 | 0.0705 | 0.354 | 0.597 | -0.00239 | 1.63 | 0.129 | 0.0299 | 0.102 | 0.102
24 | GGAGCCG | 0.0709 | 0.14 | -0.345 | -0.0967 | 0.0781 | -0.281 | 0.232 | 0.153 | 0.0741 | 0.0199
25 | CAGCTGC | -0.0838 | 0.0393 | 0.174 | 0.988 | 0.0178 | 1.16 | 0.0933 | -0.171 | -0.232 | -0.0934
26 | CAAACTC | 0.0365 | -0.00562 | -0.659 | -1.72 | 0.106 | -0.563 | 0.0388 | -0.0836 | 0.0848 | -0.226
27 | CTGCTTC | 0.0268 | 0.0404 | 0.104 | -0.387 | 0.0791 | -0.707 | -0.0578 | -0.244 | 0.0951 | -0.137
28 | GCCTTAA | 0.0719 | -0.0462 | 0.0725 | 0.333 | -0.0471 | 0.442 | -0.0503 | 0.0989 | -0.13 | -0.0693
29 | CGAGGCA | -0.000995 | 0.0825 | 0.0203 | 0.273 | 0.0278 | -0.0896 | -0.298 | 0.121 | 0.0466 | 0.0433
30 | TTGACCA | 0.0195 | 0.0689 | 0.172 | -0.000283 | 0.025 | 0.427 | -0.0674 | 0.0674 | 0.0806 | 0.0724
